{"source": "PubChem BioAssay AID504845", "about": "(National Center for Advancing Translational Sciences (NCATS), 2011)", "note": "Where “and” joins values, the source holds several entries; their conditions need not be identical. Identical values can stand only once. Among all 390,000 compounds or so, about 150 (0.038%) were called active. Inconclusive means that the source gave no clear call. Such entries were picked first, then a sample of the others. Calls follow the shape of the dose curve; as a rule, active = well fitted inhibition curve with a large enough effect; inconclusive = small, poorly fitted or top-dose-only effect; inactive = no such curve, though single readings can be large or run the other way. A potency beside an inconclusive call is a rough fit, not a confirmed value. Potency is read from the fitted curve at half-maximal effect; tags tell the direction and shape of the fitted curve.", "data": [{"target": "Regulator of G-protein signaling 4 (Homo sapiens) (UniProt P49798)", "sequence (P49798 whole entry, looked up)": "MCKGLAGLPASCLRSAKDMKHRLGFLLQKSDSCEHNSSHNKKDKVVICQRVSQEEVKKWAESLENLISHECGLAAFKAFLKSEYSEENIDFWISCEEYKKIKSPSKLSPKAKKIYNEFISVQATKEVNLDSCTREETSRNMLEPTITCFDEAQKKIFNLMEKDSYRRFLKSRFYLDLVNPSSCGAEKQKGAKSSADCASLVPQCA", "assay": "Inhibitors of Regulator of G Protein Signaling (RGS) 4: qHTS; also: nearly all actives have a fitted effect of over 75% in size", "conditions": "Transcreener GDP fluorescence polarization, RGS4-accelerated GTP hydrolysis; series mostly up to 114 µM", "method_in_brief": "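MLSMR compounds (23 nl, pin-transferred) preincubated 10 min at room temperature with a 500nM (2x) first reagent, then RGS4 at 900nM (2x) plus Transcreener GDP mix added; fluorescence polarization (620/688 nm) read before and after 90 min at 30 °C.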", "values": [{"smiles": "O=C(Nc1nnc(C2CC2)s1)C1Cc2ccccc2CN1S(=O)(=O)c1cccs1", "note": "(stereo not given)", "Potency": "inconclusive: 79.4 µM [inhibitor, partial curve, poor fit]"}, {"smiles": "O=C(Nc1c(C(=O)c2ccccc2)oc2ccccc12)c1cc(-c2ccccc2O)n[nH]1", "Potency": "inconclusive: 79.4 µM [inhibitor, partial curve, poor fit]"}, {"smiles": "Nc1nonc1-c1noc(-c2ccc(Br)o2)n1", "Potency": "inconclusive: 100 µM [inhibitor, single point]"}, {"smiles": "COc1ccc(OC)c(-c2oc3ccccc3c(=O)c2O)c1", "Potency": "inactive"}, {"smiles": "COc1ccc(Cc2nnc(NC(=O)Nc3ccc(F)cc3)s2)cc1OC", "Potency": "inconclusive: 31.6 µM [inhibitor, partial curve, poor fit]"}, {"smiles": "CCOC(=O)c1ccc(NC(=O)CSc2nc3ncc(Br)c(C)c3[nH]2)cc1", "Potency": "inactive"}, {"smiles": "C=C(C)COc1ccc2c(CC)cc(=O)oc2c1", "Potency": "inconclusive: 35.5 µM [inhibitor, full curve, poor fit]"}, {"smiles": "COC(=O)c1ccc(C)c(NS(=O)(=O)c2ccc(OC)cc2)c1", "Potency": "inconclusive: 79.4 µM [inhibitor, partial curve, poor fit]"}, {"smiles": "CCN(CC)C(=O)C1CCN(Cc2ccc(Br)cc2)CC1", "Potency": "inactive"}, {"smiles": "O=S(=O)(NN1CCOCC1)c1ccc(Br)cc1", "Potency": "inconclusive: 79.4 µM [inhibitor, partial curve, poor fit]"}, {"smiles": "CCN(CC)C(=O)C1CCCN(c2ccc([N+](=O)[O-])cc2/C=N/NC(=O)c2cccc(Br)c2)C1", "note": "(stereo not given)", "Potency": "inactive"}, {"smiles": "COc1ccc(S(=O)(=O)/N=C2/NC(=O)/C(=C\\c3cc(OC)c(OC)cc3[N+](=O)[O-])S2)cc1", "Potency": "inconclusive: 100 µM [inhibitor, single point]"}, {"smiles": "COc1ccc2c(=O)c3c(=O)n(Cc4ccco4)c(-c4ccc(C)cc4)nc3oc2c1", "Potency": "inconclusive: 89.1 µM [inhibitor, partial curve, poor fit]"}, {"smiles": "CCN(CC(=O)Nc1ccc(OC)cc1)C(=O)Cc1coc2cc(C)c(C)cc12", "Potency": "inconclusive: 89.1 µM [inhibitor, single point]"}, {"smiles": "CC/C(=N\\Nc1ccccc1[N+](=O)[O-])c1ccc(O)cc1", "Potency": "inactive"}, {"smiles": "CCCCN(C)Cc1cc(=O)oc2cc3c(cc12)CCCC3", "Potency": "inconclusive: 79.4 µM [inhibitor, single point]"}, {"smiles": "COc1ccc2cc(CN(CCc3ccccc3)Cc3nnnn3Cc3ccco3)c(=O)[nH]c2c1", "Potency": "inconclusive: 25.1 µM [inhibitor, full curve, poor fit]"}, {"smiles": "O=C(COC(=O)CC1CC2CCC1C2)Nc1cccc(S(=O)(=O)NC2=NCCCCC2)c1", "note": "(stereo not given)", "Potency": "inconclusive: 44.7 µM [inhibitor, partial curve, poor fit]"}, {"smiles": "COc1ccc(CNC(=S)Nc2ccc(S(N)(=O)=O)cc2)cc1", "Potency": "inconclusive: 112 µM [inhibitor, partial curve, poor fit]"}, {"smiles": "CCC1CN(C(=O)C2CCN(S(=O)(=O)c3c(C)noc3/C=C/c3ccccc3F)CC2)c2cc(Cl)ccc2O1", "note": "(stereo not given)", "Potency": "inactive"}, {"smiles": "COc1ccccc1-c1cc(-c2ccccc2)nc(=O)[nH]1", "Potency": "inconclusive: 100 µM [inhibitor, single point]"}, {"smiles": "O=C(NN1CCOCC1)c1cccc(COc2cccc(Br)c2)c1", "Potency": "inconclusive: 50.1 µM [inhibitor, partial curve, poor fit]"}, {"smiles": "Cc1ccc(OCC(=O)NCC2(N3CCOCC3)CCCCC2)cc1C", "Potency": "inactive"}, {"smiles": "CC(=O)Nc1ccc(NC(=O)COC(=O)/C(=C/c2ccccc2)n2nnnc2C)cc1", "Potency": "inconclusive: 89.1 µM [inhibitor, partial curve, poor fit]"}, {"smiles": "CCCCCCc1ccc(C(=O)CCN(C)C)cc1", "Potency": "inconclusive: 25.1 µM [inhibitor, full curve, poor fit]"}, {"smiles": "O=C(CCc1nc2ccccc2[nH]1)Nc1ccc2c(c1)OCO2", "Potency": "inconclusive: 89.1 µM [inhibitor, single point]"}, {"smiles": "N/C(=N\\N=C\\c1ccnc2ccccc12)SC1CC(=O)N(c2ccc(Br)cc2)C1=O", "note": "(stereo not given)", "Potency": "inconclusive: 31.6 µM [inhibitor, full curve, poor fit]"}, {"smiles": "O=C1CC(C(=O)N(c2cccc(F)c2)C(C(=O)NC2CCCC2)c2ccccn2)CS1", "note": "(stereo not given)", "Potency": "inactive"}, {"smiles": "Cc1ccc(N/N=C/c2ccc3c(c2)OCCO3)cc1Cl", "Potency": "inactive"}, {"smiles": "CNC(=O)c1cc2c(=O)n3cccc(C)c3nc2n(C(C)C)c1=N", "Potency": "inactive"}, {"smiles": "COc1cccc(-c2ccc(NC(=O)C3CCCN(Cc4cnc(C)n4C)C3)cc2)c1", "note": "(stereo not given)", "Potency": "inactive"}, {"smiles": "COC(=O)[C@@]1(C)[C@H]2C(=O)N(Cc3ccccc3)C(=O)[C@H]2[C@H]2CN=C(SCC(=O)c3ccccc3)N21", "Potency": "inconclusive: 25.1 µM [inhibitor, full curve, poor fit]"}, {"smiles": "N#CCCN(C(=O)CCl)c1cccc(Cl)c1", "Potency": "inactive"}, {"smiles": "O=C(N/N=C1/CC2C=CCC12)c1ccco1", "note": "(stereo not given)", "Potency": "inconclusive: 89.1 µM [inhibitor, single point]"}, {"smiles": "CCC(C(=O)Nc1nc(C)cs1)c1ccccc1", "note": "(stereo not given)", "Potency": "inconclusive: 89.1 µM [inhibitor, partial curve, poor fit]"}, {"smiles": "Cc1ccc(C(C)NC(=O)/C(C#N)=C\\c2c(C)[nH]c3ccccc23)cc1", "note": "(stereo not given)", "Potency": "inconclusive: 100 µM [inhibitor, single point]"}, {"smiles": "Cc1cc(C(=O)Nc2c(F)cc(F)cc2Br)c(C)o1", "Potency": "inconclusive: 79.4 µM [inhibitor, single point]"}, {"smiles": "CC1CCN(C(=O)COC(=O)/C=C/c2ccc(Br)o2)CC1", "Potency": "inconclusive: 28.2 µM [inhibitor, full curve, poor fit]"}, {"smiles": "COc1ccc(N=c2oc3c(OC)cccc3cc2C(=O)NCc2ccco2)cc1OC", "Potency": "inactive"}, {"smiles": "N#C/C(=C\\c1cccc(Br)c1)C(=O)N1CCCCC1", "Potency": "inconclusive: 70.8 µM [inhibitor, partial curve, poor fit]"}, {"smiles": "CC1(C)Cc2c(C#N)c(N3CCN(C(=O)c4ccccc4Cl)CC3)nc(-c3ccco3)c2CS1", "Potency": "inconclusive: 44.7 µM [inhibitor, partial curve, poor fit]"}, {"smiles": "CC(NC(=O)C(C)N1CCN(S(=O)(=O)c2ccccc2)CC1)c1ccccc1", "note": "(stereo not given)", "Potency": "inconclusive: 89.1 µM [inhibitor, single point]"}, {"smiles": "COc1ccc2nc(NC(=O)c3nc(S(=O)(=O)Cc4ccccc4)ncc3Cl)sc2c1", "Potency": "inactive"}, {"smiles": "CC(Sc1nc(-c2ccccc2)cc(C(F)(F)F)n1)C(=O)Nc1sc2c(c1C#N)CCC2", "note": "(stereo not given)", "Potency": "inconclusive: 70.8 µM [inhibitor, single point]"}, {"smiles": "CCCCNC(=O)c1ccc2nc(-c3ccco3)c(-c3ccco3)nc2c1", "Potency": "inconclusive: 50.1 µM [inhibitor, partial curve, poor fit]"}, {"smiles": "O=C(CN1CCCCC1)NC(=O)NC1CCCC1", "Potency": "inactive"}, {"smiles": "O=C(Nc1cnn(Cc2c(Cl)cccc2Cl)c1)c1ccc([N+](=O)[O-])cc1", "Potency": "inconclusive: 50.1 µM [inhibitor, partial curve, poor fit]"}, {"smiles": "OC1CCC(Nc2ncnc3sccc23)CC1", "note": "(stereo not given)", "Potency": "inactive"}, {"smiles": "CCn1c(CNC(=O)c2ccc(OC)cc2)nnc1SCC(=O)Nc1ccccc1", "Potency": "inactive"}, {"smiles": "C=CCn1c(O)c(CN2CCN(Cc3ccccc3)CC2)c(C)c(C#N)c1=O", "Potency": "inconclusive: 79.4 µM [inhibitor, partial curve, poor fit]"}, {"smiles": "COc1cc(N=c2ssnc2Cl)c(OC)cc1Cl", "Potency": "inactive and inconclusive: 44.7 µM [inhibitor, partial curve, poor fit]"}, {"smiles": "O=C(CN1CCCCC1)c1c[nH]c2ccccc12", "Potency": "inactive"}, {"smiles": "COC(=O)C(NNc1ccccc1C)(NC(=O)c1ccc(F)cc1)C(F)(F)F", "note": "(stereo not given)", "Potency": "inconclusive: 50.1 µM [inhibitor, partial curve, poor fit]"}, {"smiles": "CCOC(=O)c1c(/N=C/c2cccc([N+](=O)[O-])c2O)sc(C)c1C", "Potency": "inconclusive: 79.4 µM [inhibitor, partial curve, poor fit]"}, {"smiles": "O=C(NC1(Cc2ccccc2)CCN(CCCc2ccccc2)C1=O)c1ccccc1", "note": "(stereo not given)", "Potency": "inactive"}, {"smiles": "CCC1CCCCN1CCCNC(=O)C1CCN(c2nnc(-n3cccc3)s2)CC1", "note": "(stereo not given)", "Potency": "inactive"}, {"smiles": "O=C(N/N=C/C=C/c1ccc([N+](=O)[O-])cc1)c1cccs1", "Potency": "inconclusive: 31.6 µM [inhibitor, full curve, poor fit]"}, {"smiles": "Cn1c(CCc2nc3ccccc3[nH]2)nnc1SCC#N", "Potency": "inconclusive: 50.1 µM [inhibitor, partial curve, poor fit]"}, {"smiles": "Cc1ccc(/C=N/NC(=O)C(C)Oc2cccc3ccccc23)o1", "note": "(stereo not given)", "Potency": "inconclusive: 44.7 µM [inhibitor, partial curve, poor fit]"}, {"smiles": "Cc1ccc(CCC(=O)Nc2ccc([N+](=O)[O-])cc2)o1", "Potency": "inconclusive: 79.4 µM [inhibitor, partial curve, poor fit]"}, {"smiles": "CC(C)(C)c1cc(C(c2cccnc2)N2CCN(CCO)CC2)cc(C(C)(C)C)c1O", "note": "(stereo not given)", "Potency": "inconclusive: 17.8 µM [inhibitor, full curve, poor fit]"}, {"smiles": "CCCCn1c(SCC(=O)N2CCCCC2C)nc2cc(S(N)(=O)=O)ccc21", "note": "(stereo not given)", "Potency": "inconclusive: 89.1 µM [inhibitor, single point]"}, {"smiles": "O=C(O)/C=C/C(=O)NNC(=O)c1ccccc1Br", "Potency": "inactive"}, {"smiles": "O=C1NC(Cc2ccc(O)cc2)c2nc3ccc(F)cc3c(=O)n2-c2cc(Cl)ccc21", "note": "(stereo not given)", "Potency": "inconclusive: 79.4 µM [inhibitor, partial curve, poor fit]"}, {"smiles": "CCOC(=O)C1=C(C)Nc2sc(C(=O)c3ccc(F)cc3)c(N)c2C1c1ccc(C(=O)OC)cc1", "note": "(stereo not given)", "Potency": "inconclusive: 100 µM [inhibitor, partial curve, poor fit]"}]}]}
